Data as given in patent US20220315661A1 (Genmab, published 2022).
“And” between values parts separate entries of the source, which are not always exact repeats. Equal entries are not always repeated.

T1: kDR5ECDdelHis (human)
T1 construct: DR5ECDdelHis in which the DR5 signal peptide (aa 1-57) is replaced by that of Kappa 2F8; C-terminal His tag; also called soluble recombinant extracellular domain of human DR5; human recombinant DR5
T1 chain: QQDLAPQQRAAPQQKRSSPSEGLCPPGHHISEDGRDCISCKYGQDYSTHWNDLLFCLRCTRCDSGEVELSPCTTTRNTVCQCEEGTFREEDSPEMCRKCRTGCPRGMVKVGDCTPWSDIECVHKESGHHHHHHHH

T2: Cyno DR5Mfdel-K420N (cynomolgus monkey DR5 with deletion of aa 185-213 and K420N), expressed on CHO-S cells (cynomolgus monkey)
T2 construct: includes the signal peptide; also called CHO-S cells expressing cynomolgus monkey DR5
T2 chain: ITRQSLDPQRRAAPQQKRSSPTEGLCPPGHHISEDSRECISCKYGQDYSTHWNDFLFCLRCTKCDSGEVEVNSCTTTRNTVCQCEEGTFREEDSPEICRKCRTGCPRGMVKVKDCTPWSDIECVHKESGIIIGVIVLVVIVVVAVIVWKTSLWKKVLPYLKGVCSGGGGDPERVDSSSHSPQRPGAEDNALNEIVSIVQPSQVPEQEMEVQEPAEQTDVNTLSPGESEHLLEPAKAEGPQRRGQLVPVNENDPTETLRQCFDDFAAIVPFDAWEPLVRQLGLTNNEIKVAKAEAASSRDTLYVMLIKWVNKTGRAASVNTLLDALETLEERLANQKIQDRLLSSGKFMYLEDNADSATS

T3: DR5sh139-166ECDdel-FcRbHisCtag (human, with aa 139-166 replaced by the …)
T3 chain: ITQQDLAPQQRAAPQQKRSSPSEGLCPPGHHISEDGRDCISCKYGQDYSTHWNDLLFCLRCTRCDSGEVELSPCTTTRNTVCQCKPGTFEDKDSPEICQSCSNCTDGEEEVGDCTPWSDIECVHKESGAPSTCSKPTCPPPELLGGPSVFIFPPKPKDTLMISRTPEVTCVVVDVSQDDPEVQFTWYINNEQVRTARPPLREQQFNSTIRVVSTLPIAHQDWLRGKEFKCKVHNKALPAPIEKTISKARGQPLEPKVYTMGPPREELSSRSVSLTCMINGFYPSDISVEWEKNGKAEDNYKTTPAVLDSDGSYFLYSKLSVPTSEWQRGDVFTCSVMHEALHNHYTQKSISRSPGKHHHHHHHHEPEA


Experiments:
kDR5ECDdelHis [1] = molecular target: T1, kDR5ECDdelHis; test: Bio-Layer Interferometry (Octet HTX), antibody on AHC biosensor, kDR5ECDdelHis in solution, n = 2
[2] = molecular target: T2, Cyno DR5Mfdel-K420N (cynomolgus monkey …); test: flow cytometry on CHO-S cells expressing cynomolgus monkey DR5, average n = 4 (SD)
[3] = molecular target: T3, DR5sh139-166ECDdel-FcRbHisCtag; test: ELISA, DR5 fusion protein captured by penta-his antibody
kDR5ECDdelHis [4] = molecular target: T1, kDR5ECDdelHis; test: Bio-Layer Interferometry (Octet HTX), antibody on AHC biosensor, kDR5ECDdelHis in solution, n = 3
[5] = molecular target: DR5sh79-115ECDdel-FcRbHisCtag (human, with aa 79-115 replaced by the …); test: ELISA, DR5 fusion protein captured on a penta-His antibody coat, detection with HRP goat anti-human IgG F(ab')2, OD 405 nm
DR5ECD-FcRbHisCtag = molecular target: T4, DR5ECD-FcRbHisCtag (human); test: as above
T4 construct: also called fully human DR5 antigen; extracellular domain of human DR5 natural variant P32L

Row | Kd (kDR5ECDdelHis [1]) [nM] | EC50 [2] | Kd (kDR5ECDdelHis [4]) [nM] | EC50 (read off the curve) [5] [µg/mL] | EC50 (read off the curve) (DR5ECD-FcRbHisCtag) [µg/mL] | Binder | binding result [3]
1 | 12.8 |  |  |  |  | IgG1-hDR5-01-G56T (antibody, Humanized IgG1,kappa without the E430G mutation; also called WT counterpart of IgG1-hDR5-01-G56T-E430G) heavy: EVQLQQSGAEVVKPGASVKLSCKASGFNIKDTFIHWVKQAPGQGLEWIGRIDPANTNTKYDPKFQGKATITTDTSSNTAYMELSSLRSEDTAVYYCVRGLYTYYFDYWGQGTLVTVSSASTKGPSVFPLAPSSKSTSGGTAALGCLVKDYFPEPVTVSWNSGALTSGVHTFPAVLQSSGLYSLSSVVTVPSSSLGTQTYICNVNHKPSNTKVDKRV[skipping human IgG1 Fc] light: EIVMTQSPATLSVSPGERATLSCRASQSISNNLHWYQQKPGQAPRLLIKFASQSITGIPARFSGSGSGTEFTLTISSLQSEDFAVYYCQQGNSWPYTFGQGTKLEIKRTVAAPSVFIFPPSDEQLKSGTASVVCLLNNFYPREAKVQWKVDNALQSGNSQESVTEQDSKDSTYSLSSTLTLSKADYEKHKVYACEVTHQGLSSPVTKSFNRGEC | 
2 |  | 0.27 µg/mL and 1.77 nM | 10.6 | ~0.02 | ~0.02 | IgG1-hDR5-01-G56T-E430G (antibody, Humanized IgG1,kappa with hexamerization-enhancing E430G (Eu numbering); also called IgG1-DR5-01-G56T-E430G; HC hDR5-01-G56T-E430G / LC hDR5-01-G56T) heavy: EVQLQQSGAEVVKPGASVKLSCKASGFNIKDTFIHWVKQAPGQGLEWIGRIDPANTNTKYDPKFQGKATITTDTSSNTAYMELSSLRSEDTAVYYCVRGLYTYYFDYWGQGTLVTVSSASTKGPSVFPLAPSSKSTSGGTAALGCLVKDYFPEPVTVSWNSGALTSGVHTFPAVLQSSGLYSLSSVVTVPSSSLGTQTYICNVNHKPSNTKVDKRV[skipping human IgG1 Fc with E430G (EU numbers)] light: EIVMTQSPATLSVSPGERATLSCRASQSISNNLHWYQQKPGQAPRLLIKFASQSITGIPARFSGSGSGTEFTLTISSLQSEDFAVYYCQQGNSWPYTFGQGTKLEIKRTVAAPSVFIFPPSDEQLKSGTASVVCLLNNFYPREAKVQWKVDNALQSGNSQESVTEQDSKDSTYSLSSTLTLSKADYEKHKVYACEVTHQGLSSPVTKSFNRGEC | no binding (tested: range 0.46-1,000 ng/mL)
